Test results as given in a collection of fitness landscapes (doi:10.1016/j.celrep.2020.107928).
Whole data set: some 81,000 sequences, median “one-hybrid fitness for binding parS DNA” near -0.17, cut for the highest 2% near 0.51. Some of the results follow.

B1: Caulobacter ParB omega fusion; a variant is named by its letters at X, in order, B8GW30 (parent)
chain: MESVVVGEPGMSEGRRGLGRGLSALLGEVDAAPAQAPGEQLGGSREAPIEILQRNPDQPRRTFREEDLEDLSNSIREKGVLQPILVRPSPDTAGEYQIVAGERAWRAAQRAGLKTVPIMVRELDDLAVLEIGIIENVQRADLNVLEEALSYKVLMEKFERTQENIAQTIGKSXSHVANXMRLLXLPDEVQSYLVSGELTAXHARAIAAAADPVALAKQIIEGGLSVRETEALARKAPNLSAGKSKGGRPPRVKDTDTQALESDLSSVLGLDVSIDHRGSTGTLTITYATLEQLDDLCNRLTRGI

Variants of: B1
Test: one-hybrid fitness for binding parS DNA (scaled: cognate 1, non-cognate 0); higher = stronger binding
Details: with parS DNA site
How it was run: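 Bacterial one-hybrid selection in E. coli USO rpoZ- hisB- pyrF- with a HIS3 reporter carrying the site 19 bp from the promoter, screening Caulobacter ParB libraries with four specificity codons randomised (NNS). Cells grew 48 hours at 37°C on M9-minus-histidine plus 0.1 mM IPTG and 5 mM 3-AT. Plasmids before and after selection were Illumina-sequenced, three replicate libraries pooled, and variants under 10 reads dropped. Fitness is the log change in variant-to-wild-type read ratio, rescaled to cognate 1, non-cognate 0.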

one-hybrid fitness for binding parS DNA, 0.829:
RQEC

one-hybrid fitness for binding parS DNA, 0.947:
RQNC

one-hybrid fitness for binding parS DNA, 0.29:
KAEI

one-hybrid fitness for binding parS DNA, 0.811:
RKSS

one-hybrid fitness for binding parS DNA, 0.679:
RRFC

one-hybrid fitness for binding parS DNA, 0.318:
RQYM

one-hybrid fitness for binding parS DNA, ≤ 0.2:
QLCK
AAVN
MNAV
LKNG
APKY
RHWM
AFCG
MLNC
NAVT
QRLC
CGSI
PGFD
ATRY
TQWY
QKMR
PTAI
DNPA
QNLA
LERL
VSHN
NNQT
MMLT
RPVL
RKEI
LCRC
SKNT
MPPN
QPCE
PHDC
MHQS
DHRR
AKPR
KIHN
ESRS
CRRM
PKIL
LALE
VSDK
AWHT
AAPY
QLND
FKSR
LSWK
WFPY
MHPY
HALT
VRKV
SSHA
RPPG
HSEI
SVPA
IAPR
LYGV
AGHK
LKTD
TDPW
HARV
MSRI
VPLL
SVSY
WIQL
ERHS
KRVM
WMWS
VKSV
GHGG
IANS
WPRF
RQGL
YPAR
MSKT
TEMY
ISLS
PFLW
CAPS
ARQR
YMTT
PYAN
HLYP
LRTV
QYMF
YVNL
VDWD
NDAR
MHVC
SKSQ
ARVL
YHKF
HDSN
IRNP
RFEP
VDNV
QFRP
TIRT
YAVE
TEAP
SDRT
GRNR
ACPN
KSEG
FMAM
LWPN
SVNN
NMLC
NHCG
RAID
KCYC
THMY
LLRW
AAHN
HSFT
PILF
ANRY
NKSR
HVFT
SVRV
VADK
LGLN
LYQY
EAPE
QGDN
VPAR
HGFL
FWTP
LLSK
IQVR
HMTE
DRRA
DNDS
VPCK
QHMM
HNLH
GFRD
FVGE
DSYV
VPLY
ITHM
DFYG
RSSP
KIYT
RREW
LGPF
REIW
TYNM
PICM
QYFE
MFHC
GYYC
KLAW
TKNA
AEAL
QHAD
PDHW
RGQK
ISRF
QARP
DDIS
ENLR
PSSY
MPKP
GARF
KYLT
PPHD
YETS
GYNV
TEYR
RAEP
TRIV
RRWR
TVSG
RTHD
EDEG
FANT
VLPA
QYTI
DHKC
KHRM
SIDT
LLLR
GHDY
TAWT
QPVG
HLES
QCGY
YGNR
GVFT
LTSA
FRLC
SYRV
